Results from paper PMC4336329 (PLoS ONE, 2015).
Screen size: about 310,000 compounds; about 14,000 (4.5%) showed an effect of 50% or more. Effects have a minus sign here. Some of the results follow.

Biological target: human ether-à-go-go-related gene (hERG) potassium channel (human, UniProt Q12809)
Test: primary screen, population patch clamp on CHO cells stably expressing hERG
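Also: peak tail current of the secondary pulse compared with the same well before compound.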

Sequence of human ether-à-go-go-related gene (hERG) potassium channel (Q12809 whole entry, looked up): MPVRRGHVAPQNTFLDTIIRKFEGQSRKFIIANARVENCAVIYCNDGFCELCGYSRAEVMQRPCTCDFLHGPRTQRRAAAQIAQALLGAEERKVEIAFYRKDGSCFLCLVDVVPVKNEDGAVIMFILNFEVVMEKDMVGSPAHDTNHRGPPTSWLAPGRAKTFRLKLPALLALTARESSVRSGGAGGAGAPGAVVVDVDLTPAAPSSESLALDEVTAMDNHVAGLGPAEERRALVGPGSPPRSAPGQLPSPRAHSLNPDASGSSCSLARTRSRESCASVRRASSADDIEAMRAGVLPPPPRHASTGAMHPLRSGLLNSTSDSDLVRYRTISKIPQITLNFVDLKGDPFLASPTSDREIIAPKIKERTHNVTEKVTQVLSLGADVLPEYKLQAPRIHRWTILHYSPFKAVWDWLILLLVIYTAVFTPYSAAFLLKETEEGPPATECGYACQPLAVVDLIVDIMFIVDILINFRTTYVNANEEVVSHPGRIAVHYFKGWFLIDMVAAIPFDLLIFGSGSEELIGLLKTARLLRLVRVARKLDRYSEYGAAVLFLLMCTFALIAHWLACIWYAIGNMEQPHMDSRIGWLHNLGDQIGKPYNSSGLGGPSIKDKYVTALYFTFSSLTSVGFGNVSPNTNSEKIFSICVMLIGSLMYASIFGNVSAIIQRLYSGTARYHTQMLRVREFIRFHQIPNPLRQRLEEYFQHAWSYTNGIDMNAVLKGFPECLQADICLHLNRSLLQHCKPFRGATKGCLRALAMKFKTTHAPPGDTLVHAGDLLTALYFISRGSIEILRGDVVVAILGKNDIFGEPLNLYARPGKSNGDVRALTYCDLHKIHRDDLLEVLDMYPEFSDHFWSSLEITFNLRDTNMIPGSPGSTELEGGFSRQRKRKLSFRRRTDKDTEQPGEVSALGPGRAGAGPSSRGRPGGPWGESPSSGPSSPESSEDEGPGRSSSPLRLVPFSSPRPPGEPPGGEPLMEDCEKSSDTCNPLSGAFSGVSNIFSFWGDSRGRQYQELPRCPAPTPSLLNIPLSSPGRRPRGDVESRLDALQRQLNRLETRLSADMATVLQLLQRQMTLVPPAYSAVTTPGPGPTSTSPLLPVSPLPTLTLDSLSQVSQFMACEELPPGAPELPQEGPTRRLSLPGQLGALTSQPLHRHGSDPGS

SMILES	hERG current change (%, negative = inhibition) at 10uM [%]
CN(Cc1cc(=O)[nH]c2ccccc12)C(=O)c1ccccc1	0.394
O=C(c1ccc(Cn2cc(Br)cn2)o1)n1cccn1	3.57
CSCCC(NC(=O)C1CCC(C)CC1)C(=O)OCC(=O)c1ccc(Cl)cc1 (stereo not drawn)	10.5
CCc1ccc(C2N3CC4([N+](=O)[O-])CN2CC([N+](=O)[O-])(C3)C4(C)C)cc1 (stereo not drawn)	3
c1ccc(C2=Nn3c(nnc3-c3cccnc3)SC2)cc1	-25.4
O=C(COC(=O)c1cccc(F)c1)Nc1ccc2c(c1)OCCO2	5.53
COc1ccc(C(=O)NCC(=O)OCC(=O)c2ccc(Cl)cc2)cc1OC	-58.6
CCC(=O)c1cc(F)c(N2CCN(C(=O)Cc3ccccc3)CC2)cc1C	-58.9
CCSc1ccccc1C(=O)NCc1ccco1	1.46
Cn1c(SCC(=O)n2c3c(c4ccccc42)CCCC3)nnc1-c1ccccc1	-18.1
O=C(Cn1nc(C(=O)O)c2ccccc2c1=O)NCc1ccco1	1.95
CC1=Nc2cc(C(=O)N3CCCC3)ccc2Sc2c(C)ccc(C)c21	-19.5
Cc1cc(C)c(C)c(S(=O)(=O)NCC(=O)O)c1C	-1.47
CN(Cc1cnccn1)C(=O)CC1C(=O)NCCN1Cc1c(F)cccc1Cl (stereo not drawn)	62.6
COc1cc(C(C(=O)NC2CCCCC2)N(C(=O)Cc2c[nH]c3ccccc23)c2ccccc2C)cc(OC)c1OC (stereo not drawn)	-1.26
O=C(NN=C1CCCCC1)NC1CCCCC1	9.13
CC(=O)c1cccc(CN2CCc3ccc(NC(=O)C4CCCO4)cc3C2)c1 (stereo not drawn)	2.44
COC(=O)c1c(C)nn(-c2ccc(OC(F)(F)F)cc2)c1-c1snnc1C	-15.4
Cc1nc2ccccc2nc1Nc1cccc(Cl)c1	9.24

SMILES	hERG current change (%, negative = inhibition) at 10uM [%]
CCCCCN(C(=O)CCC(=O)OCC(=O)c1ccc(C(C)CC)cc1)c1c(N)n(CCCC)c(=O)[nH]c1=O (stereo not drawn)	8.1
N#Cc1ccccc1NC(=O)CSc1cn[nH]n1	7.74
CCOC(=O)c1c(C)[nH]c(C(=O)/C(C#N)=C/c2ccc(OCC)cc2)c1C	8.16
CCN(CC)S(=O)(=O)c1cccc(NC(=O)COC(=O)c2cccs2)c1	-32.5
Cc1ccc(S(=O)(=O)N2CCCOC2CNC(=O)C(=O)NC2CCCC2)cc1 (stereo not drawn)	-6.95
CN(CCCNC(=O)C1CCN(S(=O)(=O)c2cccc3nsnc23)CC1)Cc1ccccc1	-20.8
COCCNc1nc2nonc2nc1N1CCCC1c1nccs1 (stereo not drawn)	9.27
O=C(C1=C[C@H](C2CC2)C[C@H](OCCCCO)O1)N1CCN(Cc2ccccc2)CC1	-12.5
CCCCSCc1ccc(C(=O)O)o1	1.25
C/C(=N/NS(=O)(=O)c1ccc(C(C)C)cc1)c1ccncc1	-0.0607
COC(c1ccccc1)c1nnc(CCC(=O)NC2C3CC4CC(C3)CC2C4)o1 (stereo not drawn)	-3.85
COCc1ccc(C(=O)NCC2(N3CCCCC3)CCCCC2)cc1.O=C(O)C(=O)O	-22.5
CCCn1nc2cc(C(=O)NCc3ccc(OC)cc3)ccc2c1OCC	2.65
Cn1c(=NC(=O)c2ccccc2[N+](=O)[O-])sc2cc(S(C)(=O)=O)ccc21	-4.33
Cc1ccccc1-c1cc(=O)c2c(O)cccc2o1	13.4
O=C(NCCc1ccccc1)c1c(O)c2ccccc2[nH]c1=O	29.5
Nc1ccccc1SC1CC(=O)N(c2ccc3c(c2)OCO3)C1=O (stereo not drawn)	14.7
O=C(NC1CCN(Cc2ccccc2)CC1)c1ccc(CS(=O)c2ccc(F)cc2)o1 (stereo not drawn)	-22.4
O=C(NC(=S)Nc1ccccc1)c1csnn1	12.4

SMILES	hERG current change (%, negative = inhibition) at 10uM [%]
CN(C)CCNC(=O)NC1CCCCC1	7.79
CCCCN(C(=O)c1ccccc1F)c1c(N)n(CCC)c(=O)[nH]c1=O	23.4
COCCN1C(=O)N[C@@H](c2cccc(F)c2)C(C(C)=O)=C1C	-6.66
Cl.c1ccc(CN2CCN(C3CCCSc4ccccc43)CC2)cc1 (stereo not drawn)	-8.41
CCCCc1nc(NCc2ccccc2)c(C#N)c2c1CCCC2	-14.5
Fc1ccccc1CSc1nnc(-c2cnccn2)n1Cc1ccco1	-11.2
CCC(C)[C@H](Nc1nc(-c2ccccc2)nc2c1oc1ccccc12)C(=O)O.Cl (stereo partly drawn)	9.37
O=C(NCc1ccccn1)c1c(O)c2cccc3c2n(c1=O)CC3	-11.5
C=CCN1c2ccccc2[C@]23C[C@@H](C(=O)OC)N(C(=O)C4CCC4)C2=NC(C(=O)OC)=C(C(=O)OC)[C@H]13	-12.3
O=C(NCCCCCNC(=O)c1ccccn1)c1ccccn1	29.2
O=S(=O)(NCCc1ccccc1)c1cccc2nsnc12	-21.2
CC1=NN(C(=O)c2ccc(Cn3nc(C)c([N+](=O)[O-])c3C)cc2)C(O)(C(F)(F)F)C1 (stereo not drawn)	-28.8
Cc1cc(N(CN2CCCC2=O)C(=O)c2ccc(F)cc2)no1	-9.46
CCC(Cc1ccccc1)NC(=O)/C=C/c1ccco1 (stereo not drawn)	9.2
CC(=O)Nc1ccc(NC(=O)c2c(C)nn(Cc3ccccc3)c2Cl)cc1	3.78
CCOn1c(=O)c(-c2ccc(C)cc2)[n+]([O-])c2ccccc21	19.9
O=C(CCSCCC(=O)Nc1ccccc1F)Nc1ccccc1F	3.3
C=CCn1c(SCC(=O)N(CC)CC)nc(O)cc1=O	13.2
Cc1cc(NC(=O)CSc2nc(-c3cccs3)cc(C(F)(F)F)n2)no1	13.3
